Test results taken from US20200347143A1 (GLENMARK PHARMACEUTICALS S A, published 2020).

Legend:
[1] = biological target: T1, chiOX40R HHRH-Fc (human/rat chimera; human); experiment: SPR, response units compared
T1 construct: also called chiOX40R-Fc HHRH; chiOX40R OX40 HHRH-Fc
Method: (§1) A second injection was then performed using HBS-EP buffer for 3 min followed by 5 min of dissociation. Regeneration between the injections was done using glycine pH1.5 buffer for 1 min (FIG. 21 and table 23).

[2] = biological target: T1, chiOX40R HHRH-Fc; experiment: SPR, chimera immobilised (3000 RU), fragment injected at 200 nM
Method: as §1

T1 sequence (chain, as listed by the source): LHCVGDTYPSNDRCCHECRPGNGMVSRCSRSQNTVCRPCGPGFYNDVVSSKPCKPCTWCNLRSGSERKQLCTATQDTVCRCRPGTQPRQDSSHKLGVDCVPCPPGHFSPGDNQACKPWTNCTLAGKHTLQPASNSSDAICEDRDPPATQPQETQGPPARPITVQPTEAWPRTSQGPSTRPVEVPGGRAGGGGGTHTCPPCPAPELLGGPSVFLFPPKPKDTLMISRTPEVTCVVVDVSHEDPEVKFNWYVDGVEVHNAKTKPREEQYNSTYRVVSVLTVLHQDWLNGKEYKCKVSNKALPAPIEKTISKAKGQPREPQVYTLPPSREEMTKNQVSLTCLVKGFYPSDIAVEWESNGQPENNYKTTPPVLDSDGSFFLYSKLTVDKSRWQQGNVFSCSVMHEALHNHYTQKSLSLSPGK

B1: Fc-7H11 Fab/7H11 Fab (other)
heavy: [sequence of human IgG1 Fc with changes omitted]GGGGTQVQLVQSGAEVKKPGASVKVSCKASGYTFTRYYMHWVRQAPGQGLEWMGWIYPGEGSTKYAQKFQGRVTMTRDTSISTAYMELSRLRSDDTAVYYCAREYGNYDYWGQGTLVTVSSASTKGPSVFPLAPSSKSTSGGTAALGCLVKDYFPEPVTVSWNSGALTSGVHTFPAVLQSSGLYSLSSVVTVPSSSLGTQTYICNVNHKPSNTKVDKKVEPKSC
light: DIVMTQSPDSLAVSLGERATINCKSSQSLLNSGNQKNYLAWYQQKPGQPPKLLIYGASTRESGVPDRFSGSGSGTDFTLTISSLQAEDVAVYYCQNDHSYPYTFGQGTKLEIKRTVAAPSVFIFPPSDEQLKSGTASVVCLLNNFYPREAKVQWKVDNALQSGNSQESVTEQDSKDSTYSLSSTLTLSKADYEKHKVYACEVTHQGLSSPVTKSFNRGEC
notes: N-terminal Fabs removed by digestion near the hinge; also called purified digestion product of Tetra-17
Q: For B1, which “fold better binding than Fc-7H11 Fab/2H6 scFv” value [1] is on record?
A: Its value is 2 fold.

Q: What about the response units [2] of the same binder?
A: Its response units is 870 RU.
